Scores with a large standard error are left out. Not listed are two conditions whose scores span a narrow range. Read del as a deletion of the residues named and ins as an insertion between two positions. For some assays here: How much ogerin was present is not stated here.
B1: GPR68, Q15743 (parent)
chain: MGNITADNSSMSCTIDHTIHQTLAPVVYVTVLVVGFPANCLSLYFGYLQIKARNELGVYLCNLTVADLFYICSLPFWLQYVLQHDNWSHGDLSCQVCGILLYENIYISVGFLCCISVDRYLAVAHPFRFHQFRTLKAAVGVSVVIWAKELLTSIYFLMHEEVIEDENQHRVCFEHYPIQAWQRAINYYRFLVGFLFPICLLLASYQGILRAVRRSHGTQKSRKDQIQRLVLSTVVIFLACFLPYHVLLLVRSVWEASCDFAKGVFNAYHFSLLLTSFNCVADPVLYCFVSETTHRDLARLRGACLAFLTCSRTGRAREAYPLGAPEASGKSGAQGEEPELLTKLHPAFQTPNSPGSGGFPTGRLA

Assays:
[1] = variants of: B1; assay: cAMP reporter score (Enrich2 score, wild type = 0); higher = more signal; HEK293T, FACS bins
[2] = variants of: B1; assay: surface expression score (Enrich2 score, wild type = 0); higher = more signal; HEK293T, FACS bins

Row | Variant | cAMP reporter score ([1]; pH 5.5) | cAMP reporter score ([1]; pH 6) | cAMP reporter score ([1]; pH 6, modulator: ogerin) | cAMP reporter score ([1]; pH 6.5, modulator: ogerin) | surface expression score [2]
1 | P243_Y244insGSG | -2.28 | -1.1 | -2.09 | -1.11 | -2.59
2 | L242_P243insG | -2.17 | -1.57 | -1.65 | -1.46 | -2.29
3 | L238_A239insGS | -0.913 | -0.922 | – | -1.35 | -2.02
4 | V234_I236del | -1.59 | – | – | -0.936 | –
5 | F237_A239del | -0.977 | -1.31 | -1.2 | – | –
6 | V234_V235insGS | -0.907 | -0.803 | -1.49 | -0.693 | -2.77
7 | L229H | -1.14 | – | -0.881 | – | -0.542
8 | L229R | -0.422 | -0.577 | -0.7 | -0.432 | -0.43
9 | L229K | 2.59 | – | -0.628 | – | -0.41
10 | L229F | -0.389 | -0.017 | -1.09 | -0.564 | -0.717
11 | L229T | -0.259 | 2.96 | 0.684 | 1.19 | -1.66
12 | L229M | -0.501 | -0.275 | -0.432 | -1.24 | -0.845
13 | L229C | 0.665 | 0.026 | 0.022 | -0.704 | -0.648
14 | L229A | -0.055 | – | -0.709 | -2.62 | -2.18
15 | L229Q | 0.808 | 1.91 | 0.865 | 1.75 | -0.26
16 | L229S | -0.567 | -1.35 | -1.51 | -1.28 | -1.57
17 | L229V | 0.688 | – | 0.614 | 0.481 | -0.89
18 | L229W | -0.358 | -1.44 | -1.55 | -1.79 | –
19 | L229G | -1.11 | 0.357 | -0.543 | 1.24 | -1.97
20 | C240_F241del | -1.42 | -0.851 | -1.48 | -0.685 | -2.48
21 | C240_F241insGS | -1.91 | -1.35 | – | -2.05 | -1.99
22 | R228Y | 1.96 | -0.069 | 1.66 | 0.332 | 0.871

Row | Variant | cAMP reporter score ([1]; pH 5.5) | cAMP reporter score ([1]; pH 6) | cAMP reporter score ([1]; pH 6, modulator: ogerin) | cAMP reporter score ([1]; pH 6.5, modulator: ogerin) | surface expression score [2]
23 | R228W | 1.51 | 0.583 | 1.51 | 1.01 | 0.596
24 | R228V | 0.506 | -0.153 | 0.658 | -0.202 | -1.62
25 | R228_L229del | -1.62 | – | – | -1.59 | -1.16
26 | A239C | 1.26 | 0.82 | 1.73 | 1.38 | 1.41
27 | A239G | 0.036 | -0.738 | 0.144 | -0.033 | 0.745
28 | A239N | -0.567 | -0.637 | -1.61 | -0.259 | -2.6
29 | A239E | -0.974 | -0.138 | -1.01 | -0.958 | -0.815
30 | A239S | 0.012 | -0.764 | -0.7 | -0.522 | 0.15
31 | A239P | -1.35 | -0.673 | – | -1.41 | -1.8
32 | A239T | 0.013 | – | -0.344 | -0.456 | 0.7
33 | A239W | 0.489 | 0.204 | 0.26 | -0.07 | -1.42
34 | A239V | 1.68 | 2.01 | 1.5 | 1.15 | 1.94
35 | A239M | 0.576 | 0.44 | 1.33 | 1.43 | 0.731
36 | A239Q | -1.23 | -0.196 | -1.61 | -1.07 | –
37 | A239L | 1.14 | 2.84 | 0.491 | 3.19 | 1.02
38 | A239I | 1.04 | 2.33 | – | 2.35 | 2.64
39 | A239Y | -0.875 | -0.173 | – | -1.08 | -2.73
40 | A239R | -0.431 | -0.582 | -0.651 | – | -0.425
41 | A239H | -0.601 | – | -0.689 | – | -1.1
42 | R228_L229insGSG | -2.68 | -0.967 | -2.11 | -1.48 | -0.609
43 | V234_V235insGSG | -1.09 | -1.01 | -2.12 | -1.53 | -2.73
44 | T233del | -1.3 | -1.38 | -2.13 | -0.956 | -2.61

Row | Variant | cAMP reporter score ([1]; pH 5.5) | cAMP reporter score ([1]; pH 6) | cAMP reporter score ([1]; pH 6, modulator: ogerin) | cAMP reporter score ([1]; pH 6.5, modulator: ogerin) | surface expression score [2]
45 | Y244V | -1.46 | -1.24 | -1.65 | -1.2 | -1.5
46 | Y244A | -1.34 | -1.19 | -1.1 | -1.05 | -2.75
47 | Y244L | -0.256 | -0.589 | -0.61 | -0.708 | -0.564
48 | Y244G | -0.402 | – | – | -0.663 | -2.72
49 | Y244W | -0.21 | -0.58 | -0.762 | -1.16 | -1.8
50 | Y244H | -2.24 | -1.62 | -0.937 | -1.69 | -0.272
51 | Y244I | -0.776 | -0.325 | -0.984 | – | –
52 | Y244N | -1.71 | -1.24 | -1.41 | -1.94 | -2.32
53 | Y244F | 0.761 | -1.86 | -0.676 | -2.74 | –
54 | Y244C | -1.07 | -1.06 | -1.32 | -1.06 | -1.13
55 | Y244T | -0.756 | -1.21 | – | -0.778 | -2.16
56 | Y244S | -0.482 | -0.204 | -0.713 | – | –
57 | Y244Q | -1.35 | -0.447 | -1.33 | -0.636 | -2.92
58 | Y244R | -1.9 | – | -2.28 | – | -2.66
59 | Y244M | -1.13 | -1.08 | -1.41 | -0.451 | –
60 | Y244K | -0.986 | -0.625 | -0.741 | -1.03 | -0.815
61 | Y244E | -1.28 | -1.63 | -1.68 | -0.878 | -1.36
62 | Y244D | -1.12 | -1.05 | -1.81 | -1.24 | –
63 | F237E | -0.001 | – | -1.26 | -0.171 | -0.93
64 | F237Q | -0.475 | -1.48 | -1.34 | -1.21 | -0.626
65 | F237I | -0.121 | 1.39 | 0.368 | 0.908 | -0.157
66 | F237K | 0.205 | 1.15 | -0.615 | 0.033 | -0.104

Source: the GPR68 mutational scans of Howard et al. (2025)
